Hit rate of the full screen: of about 3,200 compounds, about 75 (2%) showed an effect of 50% or more. The list shows a part of the results.
system: T1, S. aureus MSSA476; design: species or system S. aureus MSSA476 (TSB) or V. cholerae SAD30 (LB); 384-well bacterial growth screen at 25 uM, OD600 relative to DMSO control; conditions: relative growth, OD600, TSB; 25 µM; inhibitor
T1 construct: MSSA476

| SMILES | % of control remaining [%] |
| --- | --- |
| C=CC(=O)N1CC(c2cc(CO)on2)C1 [1-K20, 1-{3-[5-(hydroxymethyl)-1,2-oxazol-3-yl]azetidin-1-yl}prop-2-en-1-one] | 116.396 |
| C=CC(=O)N1CCC(C(=O)N(C)C2CCCc3c2cnn3C)CC1 (stereo not shown) [2-P12, N-methyl-N-(1-methyl-4,5,6,7-tetrahydro-1H-indazol-4-yl)-1-(prop-2-enoyl)piperidine-4-carboxamide] | 102.002 |
| CC(Cl)C(=O)NCc1cc2sccc2s1 (stereo not shown) [6-B07, 2-chloro-N-({thieno[3,2-b]thiophen-2-yl}methyl)propanamide] | 80.2439 |
| CC(Cl)C(=O)c1ccc(NC(=O)C(C)(C)C)cc1 (stereo not shown) [10-M06, N-[4-(2-chloropropanoyl)phenyl]-2,2-dimethylpropanamide] | 135.625 |
| N#CC(=Cc1cccc(F)c1)C(=O)Nc1ccc(SC(F)F)cc1 [9-N17, 2-cyano-N-{4-[(difluoromethyl)sulfanyl]phenyl}-3-(3-fluorophenyl)prop-2-enamide] | 97.9775 |
| C=CC(=O)N(C)CC(=O)Nc1ccc(C)c(S(=O)(=O)N(C)C)c1 [3-G04, N-({[3-(dimethylsulfamoyl)-4-methylphenyl]carbamoyl}methyl)-N-methylprop-2-enamide] | 78.0148 |
| COc1ccc(C2CCCN2C(=O)CCl)cc1OC (stereo not shown) [6-M03, 2-chloro-1-[2-(3,4-dimethoxyphenyl)pyrrolidin-1-yl]ethan-1-one] | 92.5366 |
| CC(Cl)C(=O)c1ccc(NS(C)(=O)=O)cc1 (stereo not shown) [10-A08, N-[4-(2-chloropropanoyl)phenyl]methanesulfonamide] | 128.125 |
| CCc1nocc1CN(C)C(=O)CCl [5-B11, 2-chloro-N-[(3-ethyl-1,2-oxazol-4-yl)methyl]-N-methylacetamide] | 105.647 |
| C=CC(=O)NCC1CSCCS1 (stereo not shown) [1-K07, N-[(1,4-dithian-2-yl)methyl]prop-2-enamide] | 91.7802 |
| C=CC(=O)N(C)Cc1cccc(Cl)c1 [2-G09, N-[(3-chlorophenyl)methyl]-N-methylprop-2-enamide] | 96.4317 |
| COc1cc(C=C(C#N)C(=O)NC(C)C)cc(OC)c1 [8-F15, 2-cyano-3-(3,5-dimethoxyphenyl)-N-(propan-2-yl)prop-2-enamide] | 134.108 |
| N#CC(=Cc1ccccc1[N+](=O)[O-])C(=O)Nc1ccc2c(c1)OCCO2 [9-O20, 2-cyano-N-(2,3-dihydro-1,4-benzodioxin-6-yl)-3-(2-nitrophenyl)prop-2-enamide] | 108.764 |
| O=C(CCl)NC1CCN(C(=O)COc2ccccc2)C1 (stereo not shown) [7-L03, 2-chloro-N-[1-(2-phenoxyacetyl)pyrrolidin-3-yl]acetamide] | 105.495 |
| CC(Cl)C(=O)NCC(c1ccccc1)c1nnc[nH]1 (stereo not shown) [7-G15, 2-chloro-N-[2-phenyl-2-(4H-1,2,4-triazol-3-yl)ethyl]propanamide] | 97.0173 |
| Cc1ccc(C=C(C#N)C(=O)Nc2c(Cl)cccc2Cl)o1 [9-N21, 2-cyano-N-(2,6-dichlorophenyl)-3-(5-methylfuran-2-yl)prop-2-enamide] | 93.4831 |
| O=C(CCl)c1cscn1 [10-L08, 2-chloro-1-(1,3-thiazol-4-yl)ethan-1-one] | 27.8125 |
| C=CC(=O)Nc1ccc(C(=O)N2CCCC2C(=O)NC2CC2)cc1 (stereo not shown) [2-I21, N-cyclopropyl-1-[4-(prop-2-enamido)benzoyl]pyrrolidine-2-carboxamide] | 114.883 |
| C=CC(=O)N1CCC(C(=O)N2CCC(OC)(C(F)(F)F)CC2)CC1 [3-E08, 1-{4-[4-methoxy-4-(trifluoromethyl)piperidine-1-carbonyl]piperidin-1-yl}prop-2-en-1-one] | 101.001 |
| CC(C)NC(=O)C(C#N)=Cc1cccc(F)c1F [9-J20, 2-cyano-3-(2,3-difluorophenyl)-N-(propan-2-yl)prop-2-enamide] | 81.7978 |
| C=CC(=O)N(Cc1cn(CC)nc1C)C1CC1 [2-D13, N-cyclopropyl-N-[(1-ethyl-3-methyl-1H-pyrazol-4-yl)methyl]prop-2-enamide] | 115.579 |
| CC(C)NC(=O)C(C#N)=Cc1ccccc1OC(C)C [9-C15, 2-cyano-N-(propan-2-yl)-3-[2-(propan-2-yloxy)phenyl]prop-2-enamide] | 115.356 |
| CC1CN(CCCNC(=O)CCl)CC(C)O1.Cl (stereo not shown) [6-G11, 2-chloro-N-[3-(2,6-dimethylmorpholin-4-yl)propyl]acetamide hydrochloride] | 89.122 |
| C=CC(=O)NCc1nncn1-c1ccccc1 [1-G07, N-[(4-phenyl-4H-1,2,4-triazol-3-yl)methyl]prop-2-enamide] | 116.747 |
| C=CC(=O)Nc1ccc(C(=O)N2CCC[C@@H]2C(=O)OC)cc1 [2-E21, methyl (2R)-1-[4-(prop-2-enamido)benzoyl]pyrrolidine-2-carboxylate] | 89.4691 |
| O=C(CCl)N1N=C(c2cccc(F)c2)CC1c1cccs1 (stereo not shown) [4-E22, 2-chloro-1-[3-(3-fluorophenyl)-5-(thiophen-2-yl)-4,5-dihydro-1H-pyrazol-1-yl]ethan-1-one] | 121.582 |
| C=CC(=O)N1CCC(C(=O)N2CCCC2C2OCCO2)CC1 (stereo not shown) [2-L12, 1-{4-[2-(1,3-dioxolan-2-yl)pyrrolidine-1-carbonyl]piperidin-1-yl}prop-2-en-1-one] | 100.609 |
| N#CC(=Cc1cccs1)C(=O)NCc1ccco1 [9-L08, 2-cyano-N-[(furan-2-yl)methyl]-3-(thiophen-2-yl)prop-2-enamide] | 76.4045 |

From PMC11995724, “Antibiotic target discovery by integrated phenotypic and activity-based profiling of electrophilic fragments” (Cell chemical biology, 2025)
